Test results published in the supplement of paper PMC10369915.
The list shows a part of the results. Cut-off read from the data, not from the text of the source: active = 3.2 or more and inactive = the rest. Only a few entries rise above the background.

B1: NVL_Y290_V295I (peptide)
chain: RHPEVYHHLGI
B2: NXPE1_Y350_G353R (peptide)
chain: KGKLIYLLRDS
B3: NYX_Y284 (peptide)
chain: ELELLYLDRNS
B4: OAS1_Y362_R361T (peptide)
chain: DDPRTYQKYGY
B5: OAS1_Y362_YF (peptide)
chain: DDPRRYQKFGF
B6: OAT_Y158_R154L (peptide)
chain: ALKWGYTVKGI
B7: OAT_Y50_G51D (peptide)
chain: EREYKYDAHNY
B8: OAT_Y50_Y55H (peptide)
chain: EREYKYGAHNH
B9: OAT_Y50_Y55H_YF (peptide)
chain: EREFKYGAHNH
B10: OAT_Y55 (peptide)
chain: YGAHNYHPLPV
B11: OAT_Y55_G51D (peptide)
chain: YDAHNYHPLPV
B12: OAT_Y55_G51D_YF (peptide)
chain: FDAHNYHPLPV
B13: OAT_Y85 (peptide)
chain: DFLSSYSAVNQ
B14: OPA1_Y268 (peptide)
chain: SLIDMYSEVLD
B15: OPA1_Y268_D273A (peptide)
chain: SLIDMYSEVLA
B16: OPA1_Y268_L272P (peptide)
chain: SLIDMYSEVPD
B17: OPA1_Y498_V502G (peptide)
chain: MKALGYFAVGT
B18: OPA1_Y582 (peptide)
chain: EWKNNYPRLRE
B19: OPA1_Y582_Y582C (peptide)
chain: EWKNNCPRLRE
B20: OPRK1_Y369_D374N (peptide)
chain: VQDPAYLRDIN
B21: OR10C1_Y251_L255I (peptide)
chain: MVSLFYGTAIF
B22: OR10C1_Y258 (peptide)
chain: TALFIYIRPKA
B23: OR10C1_Y258_L255I (peptide)
chain: TAIFIYIRPKA
B24: OR1A1_Y288_P285S (peptide)
chain: LNSFIYSLRNR
B25: OR1A2_Y288_W293C (peptide)
chain: LNPFIYSLRNC
B26: OR2A5_Y123_I126V (peptide)
chain: MSYDRYMAVCH
B27: OR2A5_Y123_YF (peptide)
chain: MSFDRYMAICH
B28: OR2B11_Y127_I130S (peptide)
chain: MALDRYVASCK
B29: OR4C12_Y285 (peptide)
chain: LNPVVYTLRNA
B30: OR4C12_Y71 (peptide)
chain: LIDTVYSSSSA
B31: OR4C46_Y285 (peptide)
chain: LNPLIYTLKNA
B32: OR51B6_Y130_R125H (peptide)
chain: HSPLRYTSILT
B33: OR51B6_Y130_T131I (peptide)
chain: RSPLRYISILT
B34: OR52J3_Y125 (peptide)
chain: MAFDRYVAVCA
B35: OR5R1_Y290 (peptide)
chain: LNPLIYSLRNK
B36: OR5R1_Y290_I289F (peptide)
chain: LNPLFYSLRNK
B37: OR6K6_Y160 (peptide)
chain: CNPLRYPTIMI

Molecular target: SHP2 C-SH2 domain E139D
Assay: enrichment score (SH2-bound / input frequency) (ratio); bacterial display of known human phosphotyrosine sites (pTyr-Var adds point mutants) read by sequencing; higher = stronger binding; tyrosines were phosphorylated by kinases first
Conditions: peptide library: pTyr-Var
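Note: displayed peptides selected on beads carrying the immobilized SH2 domain, with library peptides lacking any tyrosine serving as negative controls.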

Enrichment score, active:
B2 4.53

Enrichment score, inactive:
B1 3.04
B3 0.901
B4 0.53
B5 0.596
B6 1.5
B7 0.658
B8 1.62
B9 1.52
B10 1.06
B11 0.834
B12 0.985
B13 1.2
B14 0.76
B15 0.925
B16 0.592
B17 1.2
B18 0.816
B19 0.614
B20 0.71
B21 0.501
B22 0.504
B23 0.514
B24 0.346
B25 0.937
B26 0.693
B27 0.885
B28 0.949
B29 1.63
B30 0.903
B31 0.782
B32 1.95
B33 1.96
B34 0.998
B35 0.966
B36 0.798
B37 0.908

Molecular target: SHP2 C-SH2 domain wild-type
Assay: as above
Conditions: peptide library: pTyr-Var

Enrichment score, active:
B2 3.5

Enrichment score, inactive:
B1 2.1
B3 0.555
B4 0.568
B5 0.575
B6 1.38
B7 0.568
B8 1.32
B9 1.07
B10 1.06
B11 0.598
B12 0.829
B13 1.68
B14 0.881
B15 0.735
B16 0.627
B17 1.26
B18 0.745
B19 0.667
B20 0.767
B21 0.967
B22 0.501
B23 0.355
B24 0.391
B25 1.41
B26 0.892
B27 0.897
B28 0.968
B29 1.3
B30 1.04
B31 0.588
B32 3.13
B33 2.08
B34 1.11
B35 0.636
B36 0.692
B37 0.81

Molecular target: SHP2 N-SH2 domain L43F
Assay: as above
Conditions: peptide library: pTyr-Var

Enrichment score, active:
B2 4.01
B29 6.04
B31 3.66
B32 4.83
B33 4.96

Enrichment score, inactive:
B1 2.91
B3 0.795
B4 0.599
B5 0.534
B6 1.65
B7 0.557
B8 1.59
B9 0.855
B10 1.03
B11 0.65
B12 0.97
B13 0.959
B14 0.826
B15 0.856
B16 0.724
B17 0.992
B18 0.84
B19 0.639
B20 0.735
B21 0.843
B22 0.575
B23 0.446
B24 0.577
B25 1.32
B26 0.651
B27 0.777
B28 1.02
B30 0.838
B34 1.01
B35 2.73
B36 1.04
B37 0.697

Molecular target: SHP2 N-SH2 domain T42A
Assay: as above
Conditions: peptide library: pTyr-Var

Enrichment score, active:
B2 3.24
B32 8.32
B33 5.25

Enrichment score, inactive:
B1 2.22
B3 0.692
B4 0.488
B5 0.493
B6 1.59
B7 0.654
B8 1.21
B9 1.14
B10 0.856
B11 0.502
B12 0.772
B13 0.694
B14 0.771
B15 0.761
B16 0.605
B17 0.87
B18 0.544
B19 0.463
B20 0.724
B21 0.699
B22 0.491
B23 0.517
B24 0.47
B25 0.798
B26 0.708
B27 0.894
B28 0.837
B29 1.66
B30 0.785
B31 0.647
B34 1.31
B35 0.925
B36 0.663
B37 1.17

Molecular target: SHP2 N-SH2 domain T52S
Assay: as above
Conditions: peptide library: pTyr-Var

Enrichment score, inactive:
B1 2.92
B3 0.905
B4 0.506
B5 0.488
B6 1.29
B7 0.603
B8 1.87
B9 1.43
B10 0.997
B11 0.678
B12 0.908
B13 0.982
B14 0.706
B15 1.01
B16 0.732
B17 0.802
B18 0.846
B19 0.631
B20 0.659
B21 0.722
B22 0.491
B23 0.492
B24 0.58
B25 1.67
B26 0.835
B27 0.75
B28 0.933
B30 0.982
B34 1.15
B36 0.663
B37 0.877

Enrichment score, active:
B2 3.83
B29 6.75
B31 3.71
B32 6.38
B33 5.8
B35 3.32

Molecular target: SHP2 N-SH2 domain wild-type
Assay: as above
Conditions: peptide library: pTyr-Var

Enrichment score, active:
B2 3.87

Enrichment score, inactive:
B1 2.9
B3 0.881
B4 0.649
B5 0.818
B6 1.75
B7 0.943
B8 1.23
B9 1.11
B10 1.04
B11 0.833
B12 0.837
B13 0.901
B14 0.818
B15 0.947
B16 0.639
B17 1.04
B18 0.809
B19 0.715
B20 0.901
B21 1.67
B22 0.362
B23 0.356
B24 0.596
B25 1.17
B26 0.834
B27 1.04
B28 1.17
B29 2.12
B30 0.813
B31 1.29
B32 1.6
B33 2.66
B34 1.17
B35 0.725
B36 0.685
B37 0.849
